Test results as given in patent US20250115571A1, “OXOPIPERAZINE DERIVATIVES” (Inthera Bioscience AG, priority 2017, published 2025).
The name of at least one read-out is uncertain. Marks after values point to notes of the source that are not given here.

These compounds were tested on CaSki cells (assay: Colony Formation Assay (CFA), 14 days). Conditions: colony formation assay, class by % inhibition at 0.7, 6 or 50 μM.
Format: cell-based, human
For `CC(C)C[C@@H]1NCCN([C@@H](CC(C)C)C(=O)N2CCC(CO)CC2)C1=O` [Compound 45, (S)-1-[(S)-1-{[4-(Hydroxymethyl)-1-piperidyl]carbonyl}-3-methylbutyl]-3-isobutyl-2-piperazinone], the “Activity (inhibition of colony formation)” value was “+* (greater than 0% but less than or equal to 50% inhibition of colony formation at a concentration of 50 μM)”. In the case of `CCc1nc(CC2CCN(C(=O)[C@H](CC(C)C)N3CCN[C@@H](CC(C)C)C3=O)CC2)n(C)c1CC` [Compound 79, (S)-1-[(S)-1-({4-[(4,5-Diethyl-1-methyl-1H-imidazol-2-yl)methyl]-1-piperidyl}carbonyl)-3-methylbutyl]-3-isobutyl-2-piperazinone], the “Activity (inhibition of colony formation)” value is reported as “+++ (more than 90% inhibition of colony formation at a concentration of 50 μM)”. In the case of `CC(C)C[C@@H]1NCCN([C@@H](CC(C)C)C(=O)N2CCC(C(N)=O)CC2)C1=O` [Compound 103, 1-{(S)-2-[(S)-3-Isobutyl-2-oxo-1-piperazinyl]-4-methylvaleryl}-4-piperidinecarboxa-mide], the “Activity (inhibition of colony formation)” value is reported as “+* (greater than 0% but less than or equal to 50% inhibition of colony formation at a concentration of 50 μM)”.
